Results published in PubChem BioAssay AID1508624 (National Center for Advancing Translational Sciences (NCATS), 2021).
Screen size: about 48,000 compounds; about 120 (0.25%) were called active. Not shown: some 4% with an inconclusive outcome. The call rests on the fitted dose curve; in most records, active means well fitted activation curve with a large enough effect; inconclusive means small, poorly fitted or top-dose-only effect, or another doubt; inactive means no such curve, though single readings can be large or run the other way. The list shows a part of the results.

Test: Primary qHTS for Identification of Small Molecule Activators of Huntingtin-Antisense Promoter Activity; further: nearly all actives have a fitted effect of over 55% in size
Conditions: HEK293 HTT-AS promoter firefly luciferase reporter, 24 h; series mostly up to 57.5 µM; activity change, positive = activation: at the top concentration
Summary of the method: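 Quantitative HTS used concentration series of up to 57.5 uM final on HEK293 luciferase reporter cells, 24 h at 37 degrees C. Readout was Dual-Glo firefly luminescence.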

Activity change, positive = activation, inactive:
CCOc1cc(-c2nnc(SCC(=O)NC3CCCCC3)nc2-c2ccc(OC)c(OCC)c2)ccc1OC -18.8%, CC(C)NC(=O)C1CCCN(c2ncnc3onc(-c4ccc(F)cc4)c23)C1 (stereo not given) -12.3%, CCOc1ccccc1NC(=O)CCS(=O)(=O)c1ccc2c(c1)oc(=O)n2C -9.14% [at 11.5 µM, percent change from vehicle, -100% = no light], CCOC(=O)C(C)Sc1nnc2cc(C)c3ccccc3n12 (stereo not given) -5.71%, COc1ccc2oc(-c3cccc(NC(=O)c4cc([N+](=O)[O-])ccc4N4CCOCC4)c3)nc2c1 -9.41%, COc1cc(C2c3c(-c4c(C)cc(C)cc4O)n[nH]c3C(=O)N2Cc2ccco2)cc(OC)c1OC (stereo not given) -32.6%, CCCCN(CCCC)CCCNC(=O)c1ccc2nc(N3CCCCC3)sc2c1 9.36%, Cc1ccc(CNC(=O)CCNS(=O)(=O)c2ccc3c(c2)CCCC(=O)N3)cc1 -20.8%, COc1ccc(-c2nnn3c2nc(NCCc2ccc(OC)c(OC)c2)c2ccccc23)cc1 -3.75%, Cc1nn2c(=O)cc(COc3ccc(/C=C(\C#N)C(=O)Nc4ccccc4C)cc3)nc2s1 -20%, COc1ccc2c(c1)c1c(c(=O)n(-c3cc(Cl)ccc3C)c(=O)n1CC(=O)N1CCCC1)n2C -3.96%, COc1ccc(OC)c(Nc2nc3ccccc3nc2-n2nc(C)cc2C)c1 1.56%, CCCCN1C(=O)c2[nH]nc(-c3ccccc3O)c2C1c1ccc(OCc2ccccc2)c(OC)c1 (stereo not given) -54.6%, Cc1ccccc1NC(=O)c1c(NC(=O)c2ccccc2F)sc2c1CCC(C)C2 (stereo not given) -5.59%, COc1ccc(Cn2ccc3nc(C)c(C(=O)N4CCN(c5ccc(F)cc5)CC4)cc3c2=O)cc1 -7.68%, Cc1ccc(Sc2c(C)nn(C(C)(C)C)c2OC(=O)CC(C)C)cc1 -2.92%, Cc1c(C(=O)OC2CCC(C)CC2)[nH]c2c1C(=O)CC(c1ccc(F)cc1)C2 (stereo not given) -26.2%, CC(C)CCNc1nc2c(-c3ccccc3)nnn2c2ccccc12 -6.98%, Cc1ccc(C(=O)CSc2nc3cc(C(=O)NC4CCCC4)ccc3c(=O)n2CC2CCCO2)c(C)c1 (stereo not given) 1.23%, Oc1ccc(OCc2ccccc2)cc1 1.32%, CCOc1ccc(CNC(=O)c2ccc(CSc3nc4ccncc4n3Cc3ccc(F)cc3)cc2)cc1 -21.4%, COc1cccc(-c2cc(C(=O)Nc3cnn(Cc4ccc(Cl)cc4Cl)c3)no2)c1 -24.4%, O=C(CC1N=C2c3ccccc3N=C(SCc3cccc(F)c3)N2C1=O)NCc1cccs1 (stereo not given) -9.17%, COc1cccc(NC(=O)c2oc3ccccc3c2NC(=O)c2ccccc2C)c1 -0.554%, COC(=O)c1ccccc1NC(=O)CSc1n[nH]c(CC(C)C)n1 -26.9%, Cc1nn(-c2ccccc2)c2nc(C3CC3)cc(C(=O)Nc3cccc(F)c3)c12 -38.3%, CC(=O)Nc1ccc(S(=O)(=O)NCCc2csc3nc(-c4ccc(Cl)cc4)nn23)cc1 -41.3%, CC(C)(C)OC(=O)N1CCC(c2c(C(=O)N3CCN(c4cccc(Cl)c4)CC3)cnn2-c2cccc(Cl)c2)CC1 -16.1%, CCc1ccc(NC(=O)C2CCCN(S(=O)(=O)c3ccc4[nH]c(=O)ccc4c3)C2)cc1 (stereo not given) -40.2%, CCOC(=O)C1CCN(C(=O)Cn2nc(C)n3c(cc4c(OC)cccc43)c2=O)CC1 -19.7%, CCC1CN(C(=O)NCc2ccc(F)cc2)c2cc(C)ccc2O1 (stereo not given) -14.9%, O=C(CSc1ccnc(=O)[nH]1)NCc1ccc(F)cc1 -11.5%, COc1cccc(C(c2sc3nc(-c4ccco4)nn3c2O)N2CCC(C)CC2)c1 (stereo not given) -3.46%, Cc1cccc2c(=O)cc(CSc3ccccc3NC(=O)c3cccc(Cl)c3)[nH]c12 -17.7%, Cc1ccc2nc(CSc3nnc(NC(=O)C(C)C)s3)cc(=O)n2c1 -3.46%, CCOc1ccc(-c2cc3c(=O)n(Cc4nc(-c5ccc(OCC)c(OC)c5)oc4C)ccn3n2)cc1Cl -15.4%, CCCCn1cc2c(c1-c1ccc(Br)cc1)c(=O)n(C)c(=O)n2C -31.1%, CSc1ccc(C2c3c(-c4ccccc4O)n[nH]c3C(=O)N2Cc2ccncc2)cc1 (stereo not given) -37%, Cc1cccc(OCC(=O)Nc2c(C(=O)Nc3ccc(F)cc3)oc3ccccc23)c1 15.4%, Cc1cccc(N2C(=O)CSC23C(=O)N(C)c2ccccc23)c1 (stereo not given) -14.8%, Cc1cccc(C(=O)NCCc2nc3ccccc3n2CCC(C)C)c1 -13.5%, CN[C@@H]1[C@@H](O)[C@@H](O[C@@H]2[C@@H](O)[C@H](O[C@H]3O[C@H](CN)[C@@H](O)[C@H](O)[C@@H]3O)[C@@H](N)C[C@@H]2NC(=O)[C@@H](O)CN)OC[C@]1(C)O -13.1%, O=c1c2sc3ccccc3c2n(Cc2cccc(Cl)c2)c(=O)n1Cc1ccccc1 -27.1%, CCOc1ccc(OCC)c(NC(=O)c2cnn(-c3ccc(F)cc3)c2-n2cccc2)c1 -24.7%, CCc1ccc(-n2nc(C)c3c(C)cc(=O)n(CC(=O)Nc4cc(Cl)ccc4OC)c32)cc1 2.67%, COc1cc(NC(=O)NCCc2c(C)nn(C)c2C)cc(OC)c1OC -9.18%, CCCN1CCN(c2nnc(-n3cccc3C(=O)Nc3ccccc3C(F)(F)F)s2)CC1 -6.54%, Cc1nc2nc(NCc3ccccc3Cl)[nH]n2c(=O)c1Cc1ccccc1 -9.26%, CCOC(=O)c1cnc2c(C)cc(C)cc2c1NCCN1CCOCC1 -3.49%, O=C(Nc1ccccc1OCc1cc(=O)n2ccccc2n1)Nc1ccccc1C(F)(F)F 7.25%, CCCSC1=NC2(CCN(C(=O)NC3CCCCC3)CC2)N=C1c1ccc(C)cc1 -10.6%, Cc1ccc(C)c(OCc2nc3ccccc3n2C)c1 9.89%, Cc1ccccc1NC(=O)CSc1nc2c(oc3ccccc32)c(=O)n1Cc1ccco1 -16.8%, Cc1cccc(N(C)S(=O)(=O)c2nnc(NC(=O)C(C)Oc3ccccc3)s2)c1 (stereo not given) -41.7%, CN1C(=O)c2ccccc2Sc2ccc(NC(=O)Cc3ccc(Cl)cc3)cc21 -28.4%, COc1ccc(OC)c(CCNC(=O)c2ccc3c(c2)N(Cc2ccccc2)CCS3)c1 -28.9%, COC(=O)c1sccc1S(=O)(=O)N1CCN(c2cccc(C)c2)C(C)C1 (stereo not given) -28.2%, O=C(NCc1ccccc1)C1CCN(c2ncnc3c2nc2n3CCCCC2)CC1 3.58%, Cc1ccc(CCNC(=O)C2CC(=O)N(CCc3ccc(C)cc3)C2)cc1 (stereo not given) -15.3%, CCOC(=O)c1cccc(NC(=O)C2COc3ccc(OC)cc3C2)c1 (stereo not given) -25.2%, N=c1ccn2c(n1)O[C@H]1[C@@H](O)[C@@H](CO)O[C@H]12 -32.3%, CCCCc1ccc(NC(=O)Cn2cnc3c(oc4ccccc43)c2=O)cc1 8.23%, O=C(NCc1ccc(Cl)cc1)c1ccc2c(c1)nnn2C1CCCC1 -2.28%, COc1ccc(C)cc1NC(=O)CSc1nc(=O)n(Cc2ccco2)c2c1CCC2 -28%, Cc1ccc(-n2cc(-c3ccccc3)c3c(N4CCC(C)CC4)ncnc32)cc1Cl -0.431%, Clc1cccc(CNCCCSc2nnnn2-c2ccccc2)c1 -7.54%, COC(=O)c1scc(-c2ccc(C)cc2)c1S(=O)(=O)Nc1cc(C)c(Cl)cc1OC -39.3%, Cc1cccc(N2CCN(C(=O)CCS(=O)(=O)c3ccc4c(c3)CC(=O)N4C)CC2C)c1 (stereo not given) -10.5%, CC(=O)N1CCN(c2csc3ccc(Cl)cc3c2=O)CC1 18.9%, Cc1ccc(NS(=O)(=O)c2ccc3c(c2)n(C)c(=O)n3C)c(C)c1 -14.7%, Cc1cccc(C(c2sc3nc(-c4ccco4)nn3c2O)N2CCOCC2)c1 (stereo not given) -8.57%, CCCCOC(=O)c1ccc(NC(=O)c2ccc3c(c2)CCN3S(C)(=O)=O)cc1 -32.3%, O=C(NCCc1cccs1)c1ccc(Cn2c(SCc3cccc(F)c3)nc3cccnc32)cc1 -7.52%, CCNc1nc2c(c(=O)n(C)c(=O)n2C)n1Cc1ccc(F)cc1 -18.8%, Cc1ccccc1S(=O)Cc1ccc(C(=O)NCc2ccccc2Cl)o1 (stereo not given) -19.7%, O=C(Cn1cc(C(=O)c2ccco2)c2ccccc21)Nc1ccccc1C(F)(F)F -31.7%, Cc1ccc(CSC2=NC(C)(C)Nc3ccccc32)c(C)c1 -21.2%, COc1ccc(-c2csc3ncnc(Nc4ccccc4)c23)cc1 15.6%, Fc1cccc(CN2CCc3nc(Nc4ccc5c(c4)OCCO5)ncc3C2)c1F 8.49%, CCOC(=O)c1c(-c2ccccc2)oc2ccc(OCc3ccccc3Br)cc12 -3.89%, CCOc1ccccc1NC(=O)Cn1c(=O)oc2ccccc21 -11.5%, COc1ccc(-c2noc(N3CCC(C(=O)N4CCN(c5cccc(OC)c5)CC4)CC3)n2)cc1 -84.4%, COc1ccc(NC(=O)Cn2cc(C(=O)c3ccc(C)c(C)c3)c(=O)c3cc(OC)ccc32)cc1 -22.2%, CSc1ncc(Cl)c(C(=O)Nc2c(C(=O)c3ccc(Cl)cc3)oc3ccccc23)n1 3.8%, Cc1ccc(-n2ncc(C(=O)N3CCN(c4ccccc4F)CC3)c2C2CCN(C(=O)OC(C)(C)C)CC2)cc1C -10.1%, Cc1cccc(OC(=O)CSc2nnc(-c3cccs3)o2)c1C -3.57%, CCOC(=O)c1c(S(=O)(=O)N2CCCC(C(=O)Nc3cccc(CC)c3)C2)c(C)n(CC)c1C (stereo not given) -12.5%, O=C(NCCO[N+](=O)[O-])c1cccnc1, Cc1c(NC(=O)Cc2ccc(Cl)cc2)cccc1-c1nc2cccnc2s1 -9.5%, CCOC(=O)c1c(C)[nH]c(C)c1S(=O)(=O)NCC(=O)Nc1cccc(Cl)c1 0.0687%, Cc1cccc(CNC(=O)Cn2nc(C)c3nn(-c4ccc(Cl)cc4)c(C)c3c2=O)c1 -22.8%, Cc1c(CNC2CCCCCC2)c(C(=O)O)c(C)n1Cc1cccc(Cl)c1 -10%, Cc1ccc(Cl)c(Nc2ccccc2C(=O)O)c1Cl -9.21%, O=C(CSc1nc(Nc2ccccc2)c2ccccc2n1)c1ccc(Cl)cc1 -41.5%, Cc1cc(C)cc(NC(=O)NCc2c(-n3cccc3)sc3c2CCCC3)c1 -14.1%
